Experimental data as given in publication PMC10726135.
The list shows a part of the results. At the low end of the ranking, values are background and their order means little. The protein was read in a cell extract, so binding may be indirect.

biological target: T1, HNF4alpha2 (COS-7 nuclear extract) (UniProt P41235); experiment: protein-binding microarray; details: COS-7 nuclear extract on double-stranded Agilent 4x180k PBM; binding buffer, salt, pH and temperature not given; high values mean tight binding; double strand, one strand shown; sequences stand for … in …GCCTAGGGAGATTAGAGTATCGGTCGA
T1 sequence: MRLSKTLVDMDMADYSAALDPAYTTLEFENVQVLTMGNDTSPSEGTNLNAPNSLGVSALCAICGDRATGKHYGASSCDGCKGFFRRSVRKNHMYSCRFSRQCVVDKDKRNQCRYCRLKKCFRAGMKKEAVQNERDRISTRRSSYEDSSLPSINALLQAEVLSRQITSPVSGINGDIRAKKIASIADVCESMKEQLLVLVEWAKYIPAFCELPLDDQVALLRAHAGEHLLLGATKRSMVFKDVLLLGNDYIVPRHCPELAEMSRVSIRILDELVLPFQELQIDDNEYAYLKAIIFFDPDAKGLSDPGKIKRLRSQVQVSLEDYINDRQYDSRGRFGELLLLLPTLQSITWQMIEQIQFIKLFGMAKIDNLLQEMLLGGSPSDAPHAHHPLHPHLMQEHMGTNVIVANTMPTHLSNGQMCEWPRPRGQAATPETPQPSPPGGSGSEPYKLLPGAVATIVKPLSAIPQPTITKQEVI

| Sequence | binding signal (log2 normalized intensity) |
| --- | --- |
| ATTATTAACTGTAGGCGTATGCTGTACAGA | 1.29 |
| ATAGGGAAAGATAAAAAAGTTCCAGAGACC | -1.16 |
| AGGGCATGGGCAGCTTTGAAGACTCTCTTT | -1.08 |
| GAAGATGCCAGCCCCGAGATAACCCCTCTC | 4.64 |
| CAGGAGGATTCCTGATGCGTTCAAGGAACA | -0.786 |
| GATAGGCACAATCAGCAAACACAGATAGCA | -1.23 |
| GAGGGGGACACAGTTCAGGCCATCACACTC | -1.09 |
| ATCTTCCTGAGGAGAGCAAAGATCACCTGG | 1.13 |
| CACACACACACAGCATTCCATTCATTTTAG | -0.727 |
| TTCCCTCATGATTTAGTAAGTTCAAGAAGA | 0.956 |
| CAGGATGGTAGTTGCTGAAGGGCAGGGTTG | 0.789 |
| GTAATCATTTGGGACAAAGTTCATCTGGGC | 3.27 |
| GTGGGAGAGGGGGACTGCAAGTACGATTGG | -0.658 |
| TGCGTGTTATCTATGGAACATGGACTTTGA | 8.74 |
| TTATCAAGCGTGCACCCCAGGTACGGAGGA | 0.548 |
| GGCAGCAGGGAAGAGCCGGCCGGCGGGGTC | 1.31 |
| ATAAGGGGCAGCAAACCTACCTGAACTTTG | 3.07 |
| ACAGTGGGGAGGGCAGGGTCAGAACCTGCC | -1.09 |
| CCATAGCGAAGCCGGCGGCGGAATGCTTGT | -0.837 |
| CGGGTATGTGGGGCGTGTGTTAGACTTTGG | 4.22 |
| GAGGAAGGAATGCACATGCCTTAAGGGACC | -1.34 |
| GCAGGAGGTCAGAAACAGAAAGTCCGGGGG | -1.09 |
| GCTCTGTTTTACAAACACAATGGAAGGCTG | -0.962 |
| ACCTCAACTCTCAGTTTGGCTCTTATGTCC | 1.28 |

| Sequence | binding signal (log2 normalized intensity) |
| --- | --- |
| GTCATGGCAACAGTTTTCTGGGATGCCCAA | -0.917 |
| CTAACAAGCTGCCAAACTCTCACTCTACTC | -1.06 |
| GATGGTACAAATTCATGGCTGGGCTCGGCT | -1.13 |
| CTCTGCAACTCAGAGACAGGGATTGGTTCT | -0.965 |
| CTCTCACCTGCCTAACATTCTCTAATCAGG | -0.221 |
| AGCAAAGTTCAATTTCCAACAAATGAAACT | -1.12 |
| CAAAAGAGGCTTCCTGGGCCAGGTCACTTG | 0.0549 |
| AGCTTGAGAAACAGGGGCTTAAACCTTTAA | -0.858 |
| TAGTGGCTGAAAGTACTGGCCAGATGAGGT | -0.921 |
| TGTGTCTTGATCTTGCAACTCAACCCTGGC | 0.893 |
| GTTTGTATTCCTTGTCCTTGACCCTTCCTC | 3.7 |
| ACACAATCTAAAAAGTATGTCATAATGTAC | 1.06 |
| CTATTTACACAGCTGATGGAAGTTTGCCCT | 2.98 |
| ACCGACCTTTGGTTCCTGAACTCAAACCCC | 2.57 |
| CACAGGAGAAAACAGCACAAGCAATGGCTG | -1.23 |
| CCCCACCCCCCACCCCAGAAGTATGGGAAG | 4.57 |
| GTTATCACAGCTGGCCCACTGTTCTCTCTA | -1.1 |
| CTCTAGCTGTCCTCCTCTGAAGGAACTTCT | -0.714 |
| ATAAATACCAAAGCCATGGCTCCAACCCGA | -0.953 |
| TGGGGTCTCGCTGCTTCGGCCTTTGACCTC | 7.94 |
| ATCCTGGGCTACCGATATGAGGCTTCCATT | -1.32 |
| TTCATAGGTCAATTCTTTGAAGTCTTCCCT | 0.933 |
| CAAATATTTACTAGTTAAGTCACTGGGCTG | 0.727 |
| AAGTGTCAGAGCAGGTGAACGACTTGACAA | -1.16 |

| Sequence | binding signal (log2 normalized intensity) |
| --- | --- |
| CAGAGGACAGGTTTCCTGAGTTACAGATAA | -0.67 |
| GAGAGTCAAAGGTTAATGAGCCCCCTAAAA | 4 |
| CCTCCTATGATCTTTCATTCCTATTGTCCC | 2.12 |
| TGGAGATATGATAGCTGACAAGCAAACACA | -1.14 |
| AAGAATTGCTCAACCTGGACCTCATTAATA | 1 |
| TCGTGCCCTAATCTCACTCTTTGTTATTTA | 1.07 |
| GACTACTTCTCACCACCTCTGCTGCGATCA | -1.13 |
| TGACAATTACATAGTTGAAATAGCATGAAT | -0.62 |
| TCTTTGGTGGTGGGGGGTAGCCACTGACAG | 0.63 |
| GGTGGTGATGGTGGGAGGGAGGCTTTTGCA | -0.879 |
| GCTAAGAGACAGCTCCACAGCTGGACTTTG | 5.15 |
| GATGTTCTACACTGCTTACCCTGCAGTGTG | 0.052 |
| AGAGAGGGATTAAAGTGTAGGGAGTGTCCA | 0.856 |
| CTTTGTTGGTTTTGCCCGAGGTCTGATAAG | 1.7 |
| GAGGCAGTCCTGGCTTGGCCACCTACTAGC | -1.15 |
| CTAGGAGAATCACTAGGACATATATGAGGA | -1.01 |
| GTCACCTACATGTGAGAGAGGCTTATGCAT | -1.12 |
| GATTGGGTCTTCTAGAAACAACACACCTTG | 0.472 |
| GGGCTTGCAAAGGTCAGGTTTCAGGAATCA | 1.81 |
| TATCTGGTTCAAAGGTCATTTCTGCTTGCA | 5.75 |
| TCAAGGGTGTTCCTGAGTAAATCTCACATT | 0.762 |
| ACAAGCGTCGCTGAGTGGAGGCCCAGTAAG | -1.07 |
| AGGCAGCATGGAATGACTTTGGGGAAATGA | -1.31 |
| GATGAAGCAATAGGAATCACACAACTTTCA | -1.12 |

| Sequence | binding signal (log2 normalized intensity) |
| --- | --- |
| CCGTTAGCCAATATTTGCAAGGCTGTTGGC | -1.09 |
| AGCTGGACTTTGAACTTCATGTGTGGTGCA | 6.21 |
| GCAGAGGCCTGATGGTGAGTTCTGTCCTTT | 2.23 |
| CTTGGCTGTGCTGCCCTTTGCCCTTTGGGA | 7.11 |
| CTGAAGACAAAGCACAATCAAAGCAATGGC | -1.15 |
| CTCTTCAGAATGGCCTGCCCATCCCCCCAA | 5.18 |
| TCATATGGACTATGTTTACACAGCCTTGTA | 0.636 |
| TCCTCCAAAACCCAGTTCATAGGTCAATTC | 4.02 |
| TGGAGCAATTCAACAACTGTGCATTCTGAA | -0.663 |
| GGAATGTGCAAACGGCCCAGGGTTAGAGGA | -0.596 |
| GTGACCTTCGATCACCTCAAGAAAGAGGTG | 1.94 |
| CTGGACTCAAGGAATCCTCCTAAGTAGCCA | -1.15 |
| TATTTGACCTTCGGCCTCAATTATAACTCA | 4.69 |
| TTGAATTCCTGGAAATCCCGAAATAGAGCC | -1.13 |
| GCCTGTGCTAAGTTTCAAAGAGGAGGCAGA | -1.1 |
| CACTTGGTGGACATGGTTCACTGATTACTG | 1.03 |
| CTGGTAAAGCACTTTGCCCCCAAGAAAAGG | 3.49 |
| TTATCTCAGATGAGACTTTGGACTTTTGAA | 7.12 |
| AATAACAAAGGGCACCCTTGATGTGTATTT | 0.501 |
| ATCAGGAAGGTCAGAAAGCAGAAGTTCTAG | -1.15 |
| GAACTGCAAGGCTAGAGATTCTCCCTGGGG | -1.17 |
